# Reference: PubChem BioAssay AID1345083 (National Center for Advancing Translational Sciences (NCATS), 2018)
# Screen size: about 94,000 compounds; about 6,200 (6.6%) were called active. Inconclusive means that the source gave no clear call. Such entries were picked first, then a sample of the others. Calls follow the shape of the dose curve; as a rule, active = well fitted inhibition curve with a large enough effect; inconclusive = small, poorly fitted or top-dose-only effect; inactive = flat fitted curve, though single readings scatter. Potencies of inconclusive entries are doubtful fits and often do not repeat.
# Assay: Cytotoxic Profiling in HEK 293 Cell Line of Diverse Libraries Using Quantitative High-Throughput Screening; also: nearly all actives have a fitted effect of over 60% in size
# Settings: HEK 293 viability, ATP luminescence (CellTiter-Glo), 48-72 h; series mostly up to 115 µM
# How it was run: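 Viability of HEK 293 cells, plated at 250 cells/well, was judged by cellular ATP after compound treatment for 48 or 72 hr. Luminescence was imaged 10 min after CellTiter-Glo addition at room temperature.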
# Potency is read from the fitted curve at half-maximal effect; tags tell the direction and shape of the fitted curve.
row,Compound,Potency
1,CCOc1ccc2c(C)c(C(=O)N3CC[C@](C)(O)[C@H](C)C3)oc2c1OCC,"inconclusive: 39.8 µM [inhibitor, partial curve, poor fit]"
2,CCn1c(CO)nnc1C1CC(NC(=O)c2cnc3sccn3c2=O)C1 (stereo not given),inactive
3,CN(C)c1ccc(Nc2ncncc2-c2nc(-c3ccccc3)no2)cc1,inactive
4,COCCNC(=O)C[C@@H]1C[C@H]2O[C@H](CNC(=O)NCCOC)[C@@H](O)[C@H]2O1,inactive
5,COc1cccc(-c2ccc(CN3CCCC(NC(=O)Nc4ccccc4)C3)cc2)c1 (stereo not given),"inconclusive: 17.8 µM [inhibitor, full curve, poor fit]"
6,COc1c(C)cnc(Cn2c(-c3ccccc3)nc(C)c(CCO)c2=O)c1C,"inconclusive: 56.2 µM [inhibitor, partial curve, poor fit]"
7,COc1ccccc1Nc1ccnc(N2CCN([S+](=O)([O-])c3cccs3)CC2)n1,"inconclusive: 25.1 µM [inhibitor, full curve]"
8,O=C(C1CCC1)N1CCn2c(nnc2[C@@H]2C[C@@H](O)CN2Cc2ccccc2)C1,inactive
9,Cc1ccc(NC(=O)C2N(C(C)C)C(=O)C23CCCCC3)cc1 (stereo not given),"inconclusive: 63.1 µM [inhibitor, partial curve, poor fit]"
10,COC(=O)NC1CCCN(Cc2ccc(-c3cc(C)cc(C)c3)cc2)C1 (stereo not given),active: 39.8 µM
11,O=C1c2cnc(-c3ccccc3C(F)(F)F)nc2OCCN1Cc1ccccc1,"inconclusive: 100 µM [inhibitor, partial curve, poor fit]"
12,COc1ccc(F)c(CN2CCCC3(CCN(c4cc(C)nc(N)n4)C3)C2)c1 (stereo not given),"inconclusive: 31.6 µM [inhibitor, partial curve]"
13,CCc1noc(-c2ccn3c(CNC(=O)Cc4cccc(OC)c4)nnc3c2)n1,"inconclusive: 89.1 µM [inhibitor, single point]"
14,O=C(N[C@H]1CCN2C(=O)c3cc(-c4ccsc4)ccc3NC(=O)[C@@H]2C1)c1cccs1,"inconclusive: 56.2 µM [inhibitor, partial curve, poor fit]"
15,COC(=O)c1c(S(=O)(=O)N2CCCCCCC2)sc2c1CCN(C(=O)C1CC=CCC1)C2 (stereo not given),active: 44.7 µM
16,Cc1cc(=O)n(CC(=O)N2CCc3ccccc32)c(N2CCc3ccccc3C2)n1,inactive
17,COc1cccc(NC(=O)Cn2c(-c3ccc(F)cc3)nc(C)cc2=O)c1,"inconclusive: 89.1 µM [inhibitor, single point]"
18,CC(C)n1c(C2CCN(C(=O)Cc3cccc(F)c3)CC2)nn(C)c1=O,inactive
19,Cc1ncccc1OCC1CN(Cc2cccc(C(F)(F)F)c2)C(=O)c2c(ccnc2-c2ccc(OCC(=O)O)cc2)O1 (stereo not given),inactive
20,Cc1cccc(-c2ccc3c(c2)C(=O)N2CC[C@H](NC(=O)c4cnccn4)C[C@H]2C(=O)N3)c1C,"inconclusive: 79.4 µM [inhibitor, partial curve]"
21,COc1ccc(C(=O)N2CCCC(c3nc(-c4ccccc4)no3)CCNC(=O)CC2)cc1F (stereo not given),"inconclusive: 35.5 µM [inhibitor, partial curve, poor fit]"
22,O=C(Nc1ccccc1)N1CC(Oc2ccc(-c3nc(-c4ccccc4)no3)cc2)C1,"inconclusive: 3.16 µM [inhibitor, partial curve, poor fit]"

row,Compound,Potency
1,COc1ccc(-n2cc(CN3CCCC(CO)C3)c(-c3cccc(F)c3)n2)cc1 (stereo not given),"inconclusive: 56.2 µM [inhibitor, partial curve, poor fit]"
2,Cc1cccc(CN2C[C@@H](F)[C@@H](OCc3nc4ccccc4n3C)C2)n1,inactive
3,COC[C@@H]1CN(S(=O)(=O)c2cn(C)cn2)C[C@H]1c1ccccn1,inactive
4,CN(C)C(=O)c1ccc(-c2ccc(N3CCCCCC3)nc2)cc1,active: 31.6 µM
5,O=S(=O)(Cc1ccccc1)N1CCC(Oc2ccc(-c3noc(C4CC4)n3)cc2)C1 (stereo not given),active: 39.8 µM
6,CC(C)CCN1C[C@@H]2[C@H](C1)N(CCOc1ccccc1)C(=O)C(C)(C)[S+]2(=O)[O-],active: 112 µM
7,O=C(NC1CCN(c2cc(-c3ccc(F)cc3)[nH]n2)C1)c1ccncc1 (stereo not given),"inconclusive: 31.6 µM [inhibitor, full curve]"
8,O=C(C1CCCC1)N1CC2(CCCN(Cc3cccnc3)C2)Cc2ccccc21 (stereo not given),"inconclusive: 50.1 µM [inhibitor, partial curve, poor fit]"
9,O=C(Cc1ccc(F)cc1)N1CCc2nc(-c3ccc(Cl)cc3)nc(-c3ccccc3)c2C1,active: 35.5 µM
10,COc1ccc(-c2[nH]nc3ncc(-c4cccnc4)nc23)c(C)c1,"inconclusive: 100 µM [inhibitor, partial curve]"
11,COCc1cc(=O)n(CC(=O)Nc2cc(C)ccc2OC)c(N2CCOCC2)n1,"inconclusive: 63.1 µM [inhibitor, partial curve, poor fit]"
12,COc1ccccc1CN1CC[C@@H](CO)N(C)c2nc(C)ccc2C1,"inconclusive: 35.5 µM [inhibitor, partial curve, poor fit]"
13,O=C1c2cnc(-c3ccc(CO)cc3)nc2OCCN1Cc1ccc(F)cc1F,active: 89.1 µM
14,Cc1noc(C)c1[S+](=O)([O-])N1CCC(c2nn(C)c(=O)[nH]2)CC1,inactive
15,CNC(=O)c1cc(C)nc2onc(C3CCN(C(=O)C4CCCC4)C3)c12 (stereo not given),inactive
16,Cn1nccc1CN1CC(Oc2ccc(F)c(F)c2)C1,"inconclusive: 31.6 µM [inhibitor, full curve]"
17,CN1CCN(C(=O)C2CCCN(Cc3cccc(-c4cccs4)c3)C2)CC1 (stereo not given),"inconclusive: 50.1 µM [inhibitor, partial curve, poor fit]"
18,CCN1CCCN(C(=O)CC2CCCCC2)CC12CCOCC2,inactive
19,COc1ccc(C2(C(=O)N3CCCN(c4cc(-c5ccc(C)c(C)c5)[nH]n4)CC3)CC2)cc1,active: 25.1 µM
20,Cc1nn(-c2ccccc2)c2c1C(C)N(C1CCCN(C(=O)C3CCCC3)C1)C2=O (stereo not given),"inconclusive: 79.4 µM [inhibitor, partial curve, poor fit]"
21,O=C(CCC[C@@H]1[C@H]2CCCN3CCC[C@@H](CN1C(=O)c1cc(F)cc(F)c1)[C@@H]23)NCc1ccccc1,"inconclusive: 79.4 µM [inhibitor, single point]"
22,CN1CCc2c([nH]c3ccccc23)C12CCN(C(=O)c1ccsc1)CC2,active: 39.8 µM

row,Compound,Potency
1,Cc1nn2c(c1-c1ccccc1[S+](C)(=O)[O-])N(Cc1ccc3[nH]ccc3c1)CCC2,"inconclusive: 79.4 µM [inhibitor, partial curve]"
2,Cc1[nH]c2c(c1C(=O)N1CCCC(CCc3ccc(F)cc3)C1)C(=O)CCC2 (stereo not given),active: 31.6 µM
3,COc1cccc(CNC(=O)C2CCCN(Cc3cccc(-c4ccccc4OC)c3)C2)c1 (stereo not given),"inconclusive: 3.98 µM [inhibitor, full curve, poor fit]"
4,CC(C)c1ccc(CC(=O)N2CCCc3ncc(C(=O)NCCc4c[nH]c5ccccc45)cc32)cc1,active: 25.1 µM
5,O=C(c1ccccc1)N1CCC(n2cc(-c3nc(-c4ccccc4)no3)nn2)CC1,"inconclusive: 44.7 µM [inhibitor, partial curve, poor fit]"
6,COc1ccc(-c2cc3c(ccn3C)c(C(=O)NCc3cccnc3)n2)cc1,active: 112 µM
7,COc1ccc(-c2noc(CC3CCN(C(=O)C4CCN(C(=O)c5ccccc5)CC4)CC3)n2)cc1,"inconclusive: 31.6 µM [inhibitor, partial curve, poor fit]"
8,COC(=O)c1cccc(NC(=O)C2CCc3sc(C(=O)N(C)C)cc3C2)c1 (stereo not given),active: 44.7 µM
9,CC(C)(C)OC(=O)N1CC(Nc2ccc(Cl)cc2)C1,inactive
10,COc1ccc(Cn2c3c(c(=O)n2Cc2ccccc2)CCN(C(C)=O)C3)cc1,inactive
11,Cc1nc(C(C)C)cc(N2CCN(c3ccccc3O)CC2)n1,"inconclusive: 50.1 µM [inhibitor, partial curve, poor fit]"
12,Cn1ncc2c(C(=O)NCc3ccc(F)cc3)cc(-c3ccccc3C(F)(F)F)nc21,"inconclusive: 44.7 µM [inhibitor, partial curve, poor fit]"
13,COCCCNc1ccc(C(=O)N2CCC(CN3CCCC3=O)CC2)cn1,inactive
14,O=C(c1ccc2c(c1)OCCO2)N1CCc2[nH]nc(-c3ccccc3F)c2C1,"inconclusive: 50.1 µM [inhibitor, partial curve, poor fit]"
15,COCCN1CCCN(C(=O)c2ccoc2)c2ccccc21,"inconclusive: 89.1 µM [inhibitor, single point]"
16,COc1ccc(F)cc1S(=O)(=O)N1CCCN(C(=O)C2CC2)c2ccccc21,"inconclusive: 44.7 µM [inhibitor, partial curve, poor fit]"
17,Cc1nc(N2CCN(C(=O)c3ccc(C(C)(C)C)cc3)CC2)cc(C(F)(F)F)n1,"inconclusive: 44.7 µM [inhibitor, partial curve, poor fit]"
18,O=C(NCc1ccco1)C1CC(c2ccccc2)CN(C(=O)c2ccc(F)cc2)C1 (stereo not given),"inconclusive: 56.2 µM [inhibitor, partial curve, poor fit]"
19,COCC(=O)Nc1ccc(-n2ccnc2-c2ccc(O)c(OC)c2)cc1C,"inconclusive: 22.4 µM [inhibitor, full curve]"
20,O=C(c1cccs1)N1CCC2(CC1)CC(N(Cc1ccc(F)cc1)C1CC1)CCO2 (stereo not given),"inconclusive: 39.8 µM [inhibitor, partial curve, poor fit]"
21,CN1C[C@@H](NC(=O)COc2ccccc2)C[C@H]1c1nc(-c2ccncc2)no1,inactive
